Data: US20260055188A1 (SHENGHE CHINA BIOPHARMACEUTICAL, published 2026)

T1: Human-TNFR2-His (manufacturer: SINO, CAT: 10417-H08H) (human, UniProt P20333 23-257)
T1 construct: Bought protein; also called human TNFR2 protein; TNFR2 protein; not shown: His tag
T1 sequence (looked up): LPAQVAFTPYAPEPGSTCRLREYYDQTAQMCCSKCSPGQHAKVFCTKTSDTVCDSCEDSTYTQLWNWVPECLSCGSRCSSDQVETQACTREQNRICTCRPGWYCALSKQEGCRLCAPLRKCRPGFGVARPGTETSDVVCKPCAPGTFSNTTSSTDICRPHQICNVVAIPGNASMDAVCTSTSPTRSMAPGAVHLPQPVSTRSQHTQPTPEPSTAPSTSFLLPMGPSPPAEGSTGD


Biological target: T1, Human-TNFR2-His (manufacturer: SINO, …)
Experiment: flow cytometry, bridging: CHOK1-18.2 cells (human Claudin18.2) + 150 nM antibody + human TNFR2-His, anti-His FITC detection
Experimental: Human TNFR2 protein (SINO, CAT: 10417-H08H) was sequentially added into 96-well plate with 100 μL/well, and after mixing, the 96-well plate was incubated at 4° C. for 1 h. Pre-cooled dilution was added and washed once, centrifuged (3000 rpm, 3 min), and the supernatant was discarded, and the cells were harvested. Fluorescent secondary antibody Anti-6X-his tag antibody (FITC) (manufacturer: abcam, Cat. No.: ab1206, Lot No.: GR3420599-3) was taken and diluted at the used concentration of 1:500. 100 μL of dilution was added to the blank control group, and 100 μL of fluorescent secondary antibody dilution was added to the rest of the sample groups respectively. After incubation for 0.5 h at room temperature and 4° C. protected from light, PBS was added to wash and centrifuged (3000 rpm, 3 min) twice. After discarding the supernatant, 80 μL of the dilution was added and resuspended.

Row | Binder | E1 Mean FITC-A
1 | TC-E1 (bispecific antibody, human IgG1, kappa) light: DIVMTQSPSSLAVSLGERATINCKSSQSLLQSGNQKNYLTWYQQKPGQPPKLLIYWASTRESGVPDRFSGSGSGTDFTLTISSLQAEDVAVYYCQNNYIFPLTFGQGTKLEIKRTVAAPSVFIFPPSDEQLKSGTASVVCLLNNFYPREAKVQWKVDNALQSGNSQESVTEQDSKDSTYSLSSTLTLSKADYEKHKVYACEVTHQGLSSPVTKSFNRGECGGGGSGGGGSEVQLVQSGAEVKKPGATVKISCKVSGYSITDYLLHWVQQAPGKCLEWMGWIDPEDAKTKYGQKFQSRVTITADTSTDTAYMELSSLRSEDTAVYYCAANSGTGTMDAWGQGTLVTVSSGGGGSGGGGSGGGGSDIVMTQSPATLSVSPGERATLSCKASQNVGSNVDWYQQKPGQSPRVLIYKASIRYTGIPARFSGSGSGTEFTLTISILQSEDFAVYFCMQSKSYPITFGCGTKLEIK heavy: QVQLVQSGAEVKKPGASVKVSCKASGYTFTSYWMHWVRQAPGQRLEWMGSIESNSAGTKYDERFKTRVTITRDTSASTAYMELSSLRSEDTAVYYCARFYYGNSFAYWGQGTLVTVSS[not shown - human IgG1 constant region] | 275000
2 | TC-F1 (bispecific antibody, human IgG1, kappa) light: EVQLVQSGAEVKKPGATVKISCKVSGYSITDYLLHWVQQAPGKCLEWMGWIDPEDAKTKYGQKFQSRVTITADTSTDTAYMELSSLRSEDTAVYYCAANSGTGTMDAWGQGTLVTVSSGGGGSGGGGSGGGGSDIVMTQSPATLSVSPGERATLSCKASQNVGSNVDWYQQKPGQSPRVLIYKASIRYTGIPARFSGSGSGTEFTLTISILQSEDFAVYFCMQSKSYPITFGCGTKLEIKGGGGSGGGGSGGGGSDIVMTQSPSSLAVSLGERATINCKSSQSLLQSGNQKNYLTWYQQKPGQPPKLLIYWASTRESGVPDRFSGSGSGTDFTLTISSLQAEDVAVYYCQNNYIFPLTFGQGTKLEIKRTVAAPSVFIFPPSDEQLKSGTASVVCLLNNFYPREAKVQWKVDNALQSGNSQESVTEQDSKDSTYSLSSTLTLSKADYEKHKVYACEVTHQGLSSPVTKSFNRGEC heavy: QVQLVQSGAEVKKPGASVKVSCKASGYTFTSYWMHWVRQAPGQRLEWMGSIESNSAGTKYDERFKTRVTITRDTSASTAYMELSSLRSEDTAVYYCARFYYGNSFAYWGQGTLVTVSS[not shown - human IgG1 constant region] | 141000
3 | TC-B1 (bispecific antibody, human IgG1, kappa) light: DIVMTQSPSSLAVSLGERATINCKSSQSLLQSGNQKNYLTWYQQKPGQPPKLLIYWASTRESGVPDRFSGSGSGTDFTLTISSLQAEDVAVYYCQNNYIFPLTFGQGTKLEIKRTVAAPSVFIFPPSDEQLKSGTASVVCLLNNFYPREAKVQWKVDNALQSGNSQESVTEQDSKDSTYSLSSTLTLSKADYEKHKVYACEVTHQGLSSPVTKSFNRGEC heavy: EVQLVQSGAEVKKPGATVKISCKVSGYSITDYLLHWVQQAPGKCLEWMGWIDPEDAKTKYGQKFQSRVTITADTSTDTAYMELSSLRSEDTAVYYCAANSGTGTMDAWGQGTLVTVSSGGGGSGGGGSGGGGSDIVMTQSPATLSVSPGERATLSCKASQNVGSNVDWYQQKPGQSPRVLIYKASIRYTGIPARFSGSGSGTEFTLTISILQSEDFAVYFCMQSKSYPITFGCGTKLEIKGGGGSGGGGSGGGGSQVQLVQSGAEVKKPGASVKVSCKASGYTFTSYWMHWVRQAPGQRLEWMGSIESNSAGTKYDERFKTRVTITRDTSASTAYMELSSLRSEDTAVYYCARFYYGNSFAYWGQGTLVTVSS[not shown - human IgG1 constant region] | 55200
